Source: the supplement of paper PMC3334620
Over roughly 33,000 sequences, “E-score (-0.5 to 0.5)” has its median near -0.035; the highest 2% begin near 0.34. The list shows a part of the results.

biological target: T1, Mot3 (UniProt P54785); assay: PBM E-score (8-mer binding enrichment) (E-score (-0.5 to 0.5)); higher = stronger / more preferred TF binding; most listed sequences are background and not binding sites; settings: protein concentration: 200 nM; construct: GST-full length
T1 sequence: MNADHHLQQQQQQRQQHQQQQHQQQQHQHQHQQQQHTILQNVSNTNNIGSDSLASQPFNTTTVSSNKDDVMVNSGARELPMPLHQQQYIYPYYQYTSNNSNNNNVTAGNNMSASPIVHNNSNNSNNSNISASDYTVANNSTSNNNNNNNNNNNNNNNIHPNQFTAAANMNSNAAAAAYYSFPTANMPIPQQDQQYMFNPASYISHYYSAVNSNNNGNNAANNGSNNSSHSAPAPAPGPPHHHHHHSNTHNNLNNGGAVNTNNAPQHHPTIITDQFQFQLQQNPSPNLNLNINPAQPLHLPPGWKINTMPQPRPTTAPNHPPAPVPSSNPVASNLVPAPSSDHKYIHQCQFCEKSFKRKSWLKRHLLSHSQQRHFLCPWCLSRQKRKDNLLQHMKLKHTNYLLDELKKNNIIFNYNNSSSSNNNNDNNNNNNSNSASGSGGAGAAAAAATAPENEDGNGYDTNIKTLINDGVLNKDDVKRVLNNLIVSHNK
Description: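 Universal 'all 10-mer' protein binding microarrays (Agilent AMADID 015681) probed with GST-tagged S. cerevisiae TFs (full-length or DBD) made by in vitro transcription/translation (PURExpress), about 100-200 nM. Bound TF was detected with fluorescent anti-GST. Each ungapped 8-mer (which stands for itself and its reverse complement) is scored by the PBM enrichment score (E-score), a modified Wilcoxon-Mann-Whitney statistic from -0.5 to +0.5, computed with the Universal PBM Analysis Suite. Scale: above 0.35 generally sequence-specific binding.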

Row | Sequence | PBM E-score
1 | CTTAAGTC | -0.081
2 | CAAATCGC | -0.211
3 | CAACAGCG | -0.106
4 | AACGCCCT | 0.00584
5 | ACGCTCGG | -0.194
6 | CGGAGGAG | -0.0709
7 | ATTATACA | 0.215
8 | CCGAACCG | -0.103
9 | AGCGACAT | 0.158
10 | AAAACGAT | 0.0399
11 | CAAGGAGA | -0.116
12 | AGTTGGTC | -0.0907
13 | ATTCGAAA | -0.0272
14 | GGATGCAC | -0.183
15 | GCCGGCAC | -0.00786
16 | GGGGCCAC | -0.443
17 | CCGTGCCA | -0.255
18 | GGCAAAAC | 0.075
19 | CACGAAAC | 0.103
20 | TCATCCGA | -0.0862
21 | ACGATATA | 0.147
22 | CACAGAAG | -0.00641
23 | CCTCCAAC | -0.0141
24 | ATATAAGC | -0.111
25 | TAATGGGA | -0.123

Row | Sequence | PBM E-score
26 | ACATGCTC | 0.293
27 | TAGCAGCA | -0.149
28 | CCGACGCG | -0.13
29 | GAAATTTA | 0.165
30 | ATAAAAGG | 0.069
31 | TCTATTAA | 0.0827
32 | AGTCCAAG | -0.0471
33 | GGAAAGAC | -0.0213
34 | GCAATACC | 0.202
35 | GCTGGTGA | -0.0211
36 | CCTAAGCG | -0.0682
37 | AGGACAAC | -0.00249
38 | GCGACCTA | -0.0836
39 | GGAAGAAC | 0.0589
40 | AATGTCGA | 0.15
41 | CGTTCGAG | 0.155
42 | ACCACGGC | -0.108
43 | AGGAGTCA | -0.105
44 | CGACGACA | -0.0456
45 | ATCCTCCA | -0.1
46 | CTATAGGA | 0.093
47 | TCTGTTCA | -0.014
48 | GCTGTGAC | -0.128
49 | ACGACTAC | 0.111
50 | CTACTACA | 0.247

Row | Sequence | PBM E-score
51 | CGATTGAG | -0.267
52 | ACTATGAG | -0.173
53 | GAATTATA | 0.0628
54 | CAACAGTG | -0.0633
55 | ACACCCCA | -0.0411
56 | AAATGCGA | -0.0132
57 | GGCGACGA | -0.101
58 | TTCATAAA | -0.151
59 | ACAGGAAC | 0.466
60 | CGGGCTTC | -0.251
61 | CCGCCTCG | -0.0851
62 | AGGTTGTA | 0.248
63 | ACCCACGG | -0.199
64 | ACGTGGCA | 0.0363
65 | ACACTACG | 0.143
66 | CAATTGTC | -0.161
67 | AGTGTCGA | -0.198
68 | GACTTATA | -0.00534
69 | GCATTGTA | 0.243
70 | ATCTCGGA | -0.221
71 | GGTGACTA | 0.138
72 | CCTGATGC | 0.0872
73 | AACCCATT | -0.0634
74 | ACGGCTAG | -0.175
75 | CGGCCAGA | -0.322

Row | Sequence | PBM E-score
76 | ACTGTATG | -0.061
77 | CGTACGGC | -0.232
78 | ATATAACG | 0.102
79 | CAATATAA | 0.0511
80 | TGCGAGCA | -0.177
81 | CGTGTAGA | 0.414
82 | CACGTCAC | -0.0083
83 | GGGATCCA | -0.256
84 | CCCGAGAA | -0.146
85 | ATTGAACA | 0.184
86 | ATACCCAG | -0.244
87 | AGGTGACG | 0.0754
88 | AAGAGTCG | 0.00387
89 | ATATGAGG | -0.235
90 | ATTGTCGC | -0.0729
91 | CGCGCGTC | 0.0273
92 | CGCAGCGA | -0.212
93 | CGCAGGCC | 0.123
94 | GAAACGGA | -0.122
95 | CGAAGCCC | -0.112
96 | GGCCACAA | -0.163
97 | AAGCAGTG | 0.0592
98 | CGGCTAAG | -0.249
99 | CTCGAGGC | 0.0765
100 | AAAGCTAG | -0.114

Row | Sequence | PBM E-score
101 | CCGGCACG | -0.0224
102 | GGGTCCCA | -0.183
103 | CCCCGCAG | -0.165
104 | ACGAAAAA | 0.097
105 | CCTCTATA | -0.0637
106 | AGAATTAT | -0.0236
107 | ACGTCGGA | -0.0848
108 | ACAGCTGA | -0.0621
109 | ACCAACCC | -0.0689
110 | CTGTGCCA | -0.106
111 | CGCTCCCG | -0.144
112 | CGCGCCGC | -0.0135
113 | CATGGACG | 0.00506
114 | GGAGCTGA | -0.108
115 | ACTGCTCC | -0.264
116 | AGTCGGGC | 0.0557
117 | CTAAGCTA | -0.208
118 | AAGTCACC | 0.0807
119 | CTTCCTCC | -0.236
120 | AGGTTCAG | -0.065
121 | CTTAAAAA | 0.0623
122 | AACGCGTG | 0.267
123 | AAATCAGG | 0.127
124 | CCAGAGGA | -0.253
125 | ACACGAGG | 0.266

Row | Sequence | PBM E-score
126 | CCGAACGC | -0.115
127 | GATGGTCA | -0.226
128 | AAGGGTAA | -0.0154
129 | GAATGGAA | 0.0423
130 | GGATCGGA | 0.0257
131 | TGCAAGAA | 0.202
132 | CCTCCGAG | -0.153
133 | CTGAACAA | 0.199
134 | CTTAGATC | 0.0918
135 | CGAAATCG | -0.165
136 | AGGAGTCC | -0.169
137 | ATGGGTGC | 0.0983
138 | CTTCGTGA | 0.0492
139 | AGCACACA | 0.041
140 | CTGCACAA | 0.111
141 | CAACCGAC | 0.0207
142 | AGGATCTC | -0.222
143 | AAACACTC | -0.052
144 | AAGCAGGC | 0.173
145 | CTGTTCCA | -0.0726
146 | GACTGTTA | -0.0148
147 | TCTGCACA | 0.0104
148 | CCGAGTTA | -0.022
149 | ACCCGGCT | -0.0639
150 | GACGGCCC | -0.383

Row | Sequence | PBM E-score
151 | TCGGCACA | -0.25
152 | ATCATCCG | -0.194
153 | CCTGCGCG | 0.123
154 | CCGCCTCA | -0.184
155 | CATCCTTA | 0.0873
156 | AGAAGGGG | -0.228
157 | GGCCGTCA | -0.358
158 | GAAATCTC | -0.0926
159 | CTCTTGGA | -0.121
160 | ATTGACTA | -0.0876
161 | CCAGGGAG | -0.12
162 | GTCTCCCA | -0.157
163 | ACGCTCTG | -0.0722
164 | CCACCATA | -0.17
165 | ATTTGATG | 0.0601
166 | ACGTTAAC | 0.25
167 | CGAAGATA | -0.108
168 | ACATTCAC | 0.16
169 | CACCGCTC | -0.252
170 | ACTTTGAA | -0.173
171 | GTCGAACA | 0.0718
172 | CAGTAGTC | -0.212
